According to PubChem BioAssay (Tox21):
Where “and” joins values, the source holds several entries; their conditions need not be identical. Identical values can stand only once. Inconclusive means that the source gave no clear call. Such entries were picked first, then a sample of the others. For part of these data: Potencies of inconclusive entries are doubtful fits and often do not repeat. A structure can be active in one record and inactive in another. Calls of active or inactive are those of the source. Unless noted, the call rests on the fitted dose curve; in most records, active means well fitted curve in the direction sought with a large enough effect in the repeat runs; inconclusive means weak or mixed curves; inactive means no such curve, though single readings can be large; an effect the other way counts as inactive or inconclusive.

Experiments:
[1] = qHTS assay to identify small molecule antagonists of the thyroid receptor (TR) signaling pathway - cell viability counter screen (AID 743064); details: GH3.TRE-Luc viability, CellTiter-Fluor, 24 h; activity change, negative = cytotoxic: at 70.3 µM (top of the series); further: nearly all actives have a fitted effect of over 50% in size; further: potency means the concentration at half of the fitted maximal effect; on activity change, negative = cytotoxic: on the % scale 0 is the no-effect control and ±100 the full control effect
How it was run: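 Rat GH3 pituitary tumor cells stably expressing two TR response elements driving luciferase were plated, rested 4 h, then dosed with library compounds and T3 (1 nM final). After 23.5 h at 37 °C, CellTiter-Fluor was added for 30 min and fluorescence recorded.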

[2] = qHTS assay to identify small molecule antagonists of the thyroid receptor (TR) signaling pathway (AID 743065); further: potency means the concentration at half of the fitted maximal effect; nearly all actives have a fitted effect of over 55% in size
How it was run: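 GH3.TRE-Luc rat pituitary cells carrying two TR response elements driving luciferase were plated for 4 h, given compound plus 1 nM T3 (final), and incubated 23.5 h at 37 C. ONE-Glo luminescence measured reporter inhibition; CellTiter-Fluor fluorescence tracked cytotoxicity.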

[3] = molecular target: Estrogen receptor (Homo sapiens) (UniProt P03372); assay: qHTS assay to identify small molecule antagonists of the estrogen receptor alpha (ER-alpha) signaling pathway (AID 743069; active means well fitted curve in the direction sought with a large enough effect in the signal ratio in the repeat runs, not every such curve was filed as active; inconclusive means weak or mixed curves, or effect the other way; inactive means no such curve, though single readings can be large or run the other way; the % refers to the signal ratio; further: potency means the concentration at half of the fitted maximal effect; on activity, negative = inhibition: on the % scale 0 is the no-effect control and ±100 the full control effect); details: HEK293 ER-alpha-UAS-bla, beta-lactamase ratio, antagonist mode; activity, negative = inhibition: at 69.4 µM (top of the series)
How it was run: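 HEK293 cells stably carrying an ER-alpha-UAS-bla beta-lactamase reporter were pre-cultured overnight in 2% charcoal-stripped FBS medium. Test compounds in DMSO were added together with 17beta-estradiol for 18 hr at 37C. Read-out was fluorescence after 2 hr with LiveBLAzer B/G FRET substrate at room temperature.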

[4] = qHTS assay to identify small molecule antagonists of the estrogen receptor alpha (ER-alpha) signaling pathway - cell viability counter screen (AID 743074; calls by dose curve; further: nearly all actives have a fitted effect of over 45% in size; further: potency means the concentration at half of the fitted maximal effect)
[5] = qHTS assay to identify small molecule antagonists of the estrogen receptor alpha (ER-alpha) signaling pathway using the BG1 cell line - cell viability counter screen (AID 743081);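 further: compound given together with 17beta-estradiol as the ER stimulus; potency means the concentration at half of the fitted maximal effect; nearly all actives have a fitted effect of over 45% in size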
[6] = molecular target: Estrogen receptor (Homo sapiens) (UniProt P03372); assay: qHTS assay to identify small molecule agonists of the estrogen receptor alpha (ER-alpha) signaling pathway (AID 743075; calls by dose curve; further: potency means the concentration at half of the fitted maximal effect); details: HEK293 ER-alpha-UAS-bla, beta-lactamase FRET ratio, 18 h; activation: at 70.1 µM (top of the series)
[7] = molecular target: Estrogen receptor (Homo sapiens) (UniProt P03372); assay: qHTS assay to identify small molecule agonists of the estrogen receptor alpha (ER-alpha) signaling pathway using the BG1 cell line (AID 743079); details: BG1Luc4E2 cells, ERE-luciferase agonist, 22 h; activation: at 70.3 µM (top of the series) unless noted; further: nearly all actives have a fitted effect of over 20% in size; further: potency means the concentration at half of the fitted maximal effect; on activation: on the % scale 0 is the no-effect control and ±100 the full control effect
[8] = qHTS assay to identify small molecule antagonists of the estrogen receptor alpha (ER-alpha) signaling pathway using the BG1 cell line (AID 743080; calls by dose curve;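 further: BG1 cells stimulated with 17beta-estradiol alongside compound; on the % scale 0 is the no-effect control and ±100 the full control effect; nearly all actives have a fitted effect of over 25% in size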); details: BG1Luc4E2 ERE-luciferase antagonist mode, luminescence; activity change, negative = inhibition: at 70.3 µM (top of the series) unless noted
How it was run: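 Readout is ONE-Glo luminescence, taken 30 min at room temperature after reagent addition, preceded by a CellTiter-Fluor viability read; BG1-Luc-4E2 cells had received compound and 17beta-estradiol for 21.5 h at 37 C.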

[9] = molecular target: Aromatase (Homo sapiens) (UniProt P11511); assay: qHTS assay to identify aromatase inhibitors (AID 743083); further: potency means the concentration at half of the fitted maximal effect; nearly all actives have a fitted effect of over 55% in size
[10] = molecular target: Peroxisome proliferator-activated receptor gamma (Homo sapiens) (UniProt P37231); assay: qHTS assay to identify small molecule antagonists of the peroxisome proliferator-activated receptor gamma (PPARg) signaling pathway (AID 743191; calls by dose curve; further: nearly all actives have a fitted effect of over 30% in size; further: potency means the concentration at half of the fitted maximal effect); details: HEK293H PPARg-UAS-bla, beta-lactamase ratio, antagonist, 17 h; ratio activity, negative = inhibition: at 62.6 µM (top of the series) unless noted
How it was run: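 GeneBLAzer PPARg UAS-bla HEK293H cells carrying a UAS-driven beta-lactamase reporter were plated at 3000 cells/well, preincubated 5 h at 37C, then given compound for 17 h at 37C; LiveBLAzer B/G FRET substrate was read after 1 h at room temperature.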

[11] = test system: thyroid hormone receptor (rat, GH3 cells); assay: qHTS assay to identify small molecule agonists of the thyroid receptor (TR) signaling pathway (AID 743066; calls by dose curve; further: potency means the concentration at half of the fitted maximal effect; on activation: on the % scale 0 is the no-effect control and ±100 the full control effect); details: GH3.TRE-Luc cells, TR agonist luciferase, 24 h; activation: at 83.9 µM (top of the series) unless noted
[12] = molecular target: Peroxisome proliferator-activated receptor gamma (Homo sapiens) (UniProt P37231); assay: qHTS assay to identify small molecule agonists of the peroxisome proliferator-activated receptor gamma (PPARg) signaling pathway (AID 743094; active means well fitted activation curve with a large enough effect in the signal ratio in the repeat runs, not every such curve was filed as active; inconclusive means weak or mixed curves, or effect the other way; inactive means no such curve, though single readings can be large or run the other way; the % refers to the signal ratio; further: potency means the concentration at half of the fitted maximal effect); details: HEK293H PPARg-UAS-bla, beta-lactamase FRET ratio, 17 h; activation: at 57 µM (top of the series) unless noted
How it was run: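 GeneBLAzer PPARg UAS-bla HEK293H cells were plated, rested 5 h, then exposed to compounds for 17 h at 37C. Beta-lactamase activity was read by LiveBLAzer B/G FRET substrate fluorescence after 1 h at room temperature.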

[13] = qHTS assay to identify aromatase inhibitors - cell viability counter screen (AID 743084);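 further: cells stimulated with testosterone during compound exposure; potency means the concentration at half of the fitted maximal effect; nearly all actives have a fitted effect of over 55% in size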
Tags describe the fitted curve by direction and shape or compound fluorescence and quenching.

Chain of UniProt P37231 (P37231 whole entry, looked up): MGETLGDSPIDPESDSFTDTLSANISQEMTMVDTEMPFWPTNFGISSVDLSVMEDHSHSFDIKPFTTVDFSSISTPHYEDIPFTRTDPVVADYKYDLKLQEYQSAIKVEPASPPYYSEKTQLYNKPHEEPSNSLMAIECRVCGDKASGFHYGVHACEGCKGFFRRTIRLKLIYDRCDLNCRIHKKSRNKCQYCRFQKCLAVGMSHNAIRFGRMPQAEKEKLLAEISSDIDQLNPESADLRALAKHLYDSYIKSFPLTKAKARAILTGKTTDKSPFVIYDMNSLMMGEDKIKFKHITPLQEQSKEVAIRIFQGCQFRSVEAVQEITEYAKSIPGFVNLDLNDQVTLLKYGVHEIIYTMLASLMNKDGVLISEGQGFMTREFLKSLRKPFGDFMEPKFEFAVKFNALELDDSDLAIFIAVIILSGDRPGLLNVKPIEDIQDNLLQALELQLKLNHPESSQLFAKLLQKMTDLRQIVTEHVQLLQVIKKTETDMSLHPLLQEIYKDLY
Chain of UniProt P03372 (P03372 whole entry, looked up): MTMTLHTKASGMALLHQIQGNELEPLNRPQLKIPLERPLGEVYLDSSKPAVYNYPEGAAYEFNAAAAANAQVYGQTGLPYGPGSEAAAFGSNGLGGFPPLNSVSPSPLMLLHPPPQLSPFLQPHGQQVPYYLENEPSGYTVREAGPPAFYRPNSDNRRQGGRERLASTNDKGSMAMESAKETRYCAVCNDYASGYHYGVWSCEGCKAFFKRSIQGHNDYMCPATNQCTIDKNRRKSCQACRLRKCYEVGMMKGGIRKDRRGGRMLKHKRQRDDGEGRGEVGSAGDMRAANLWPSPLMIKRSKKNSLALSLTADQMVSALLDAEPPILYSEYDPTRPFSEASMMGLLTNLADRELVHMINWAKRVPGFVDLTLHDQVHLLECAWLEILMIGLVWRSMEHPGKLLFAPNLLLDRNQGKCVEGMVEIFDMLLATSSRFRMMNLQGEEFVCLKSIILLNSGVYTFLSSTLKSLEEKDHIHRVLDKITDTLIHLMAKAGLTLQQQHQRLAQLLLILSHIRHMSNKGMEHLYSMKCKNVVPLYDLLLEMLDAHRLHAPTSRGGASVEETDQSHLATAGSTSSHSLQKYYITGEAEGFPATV
Chain of UniProt P11511 (P11511 whole entry, looked up): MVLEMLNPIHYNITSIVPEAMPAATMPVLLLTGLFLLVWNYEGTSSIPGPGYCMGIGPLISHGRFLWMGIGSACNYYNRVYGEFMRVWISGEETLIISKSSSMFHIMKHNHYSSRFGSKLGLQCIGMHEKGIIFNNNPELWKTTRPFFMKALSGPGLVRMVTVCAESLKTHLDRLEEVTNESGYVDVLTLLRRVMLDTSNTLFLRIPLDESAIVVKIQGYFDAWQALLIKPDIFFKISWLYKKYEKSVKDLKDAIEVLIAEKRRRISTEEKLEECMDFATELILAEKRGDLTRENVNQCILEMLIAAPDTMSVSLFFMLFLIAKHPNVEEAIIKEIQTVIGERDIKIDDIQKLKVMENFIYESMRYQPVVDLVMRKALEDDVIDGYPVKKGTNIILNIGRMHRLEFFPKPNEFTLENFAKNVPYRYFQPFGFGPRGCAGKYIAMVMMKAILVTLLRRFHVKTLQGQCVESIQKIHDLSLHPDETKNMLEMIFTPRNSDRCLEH

## c1ccc(P(c2ccccc2)c2ccccc2)cc1
[1]
  Potency: inactive
[2]
  Potency: inconclusive: 31.2 µM [inhibitor, partial curve, poor fit] and inconclusive: 54.5 µM [inhibitor, partial curve, poor fit]
[3]
  Potency: inactive
[4]
  Potency: inconclusive: 61.6 µM [rising, single point]

## CCCCCCCCCCCCOS(=O)(=O)O
[1]
  Potency: inconclusive: 30.2 µM [cytotoxic, full curve, poor fit]
[2]
  Potency: inconclusive: 15.4 µM [inhibitor, full curve] and inconclusive: 68.6 µM [inhibitor, partial curve, poor fit]
[4]
  Potency: inactive and inconclusive: 27.6 µM [cytotoxic, partial curve]
[5]
  Potency: inconclusive: 68.6 µM [rising, single point]

## COC(=O)c1cc(Oc2ccc(Cl)cc2Cl)ccc1[N+](=O)[O-]
[1]
  Potency: inconclusive: 0.077 µM [cytotoxic, single point]
[2]
  Potency: active: 61.1 µM
[3]
  Potency: inconclusive: 34.7 µM [inhibitor, partial curve]
[6]
  Potency: inconclusive: 7.76 µM [rising, partial curve]
[7]
  Potency: inconclusive: 77 µM [inhibitor, partial curve, poor fit]
[8]
  activity change, negative = inhibition: inconclusive: -14.3%
[9]
  Potency: inconclusive: 68.6 µM [inhibitor, single point]
[10]
  Potency: active: 43.6 µM

## CCOC(=O)C(C)OC(=O)c1cc(Oc2ccc(C(F)(F)F)cc2Cl)ccc1[N+](=O)[O-] (centres undefined)
[1]
  Potency: inconclusive: 0.243 µM [rising, single point]
[2]
  Potency: inconclusive: 48.3 µM [inhibitor, partial curve, poor fit] and inconclusive: 68.6 µM [inhibitor, single point]
[7]
  Potency: inconclusive: 60.8 µM [inhibitor, partial curve] and inconclusive: 77 µM [inhibitor, single point]
[10]
  Potency: inconclusive: 54.7 µM [inhibitor, single point] and inconclusive: 54.9 µM

## ClC1=C(Cl)[C@]2(Cl)[C@H]3[C@H]([C@@H]4C=C[C@H]3C4)[C@@]1(Cl)C2(Cl)Cl
[1]
  Potency: active: 68.5 µM and active: 61.1 µM
[2]
  Potency: inconclusive: 68.5 µM [inhibitor, single point]
[11]
  activation: inconclusive: 0% [phenotype inactive] and inconclusive: -8.59% [phenotype inactive]
[6]
  Potency: inconclusive: 12.3 µM [activator, full curve, poor fit]
[7]
  activation: inconclusive: 9.37% [phenotype inactive]
[8]
  activity change, negative = inhibition: inconclusive: -19.5%
[12]
  activation: inconclusive: -10.4%
[10]
  Potency: inconclusive: 13.8 µM [activator, partial curve, poor fit]

## c1ccc(Nc2ccc3ccccc3c2)cc1
[1]
  Potency: inconclusive: 68.6 µM [cytotoxic, single point]
[2]
  Potency: inconclusive: 68.2 µM [inhibitor, single point] and inconclusive: 68.6 µM [inhibitor, single point]
[4]
  Potency: inconclusive: 3.47 µM [cytotoxic, full curve, poor fit]
[7]
  Potency: active: 19.2 µM and active: 9.69 µM
[13]
  Potency: active: 54.2 µM and inconclusive: 68.6 µM [cytotoxic, single point]
[12]
  activation: inconclusive: -1.25%
[10]
  Potency: inconclusive: 54.9 µM [inhibitor, single point]
  ratio activity, negative = inhibition: inconclusive: 1.37%

## CN1C(=O)[C@@H](NC(=O)c2cc3ccccc3[nH]2)N=C(c2ccccc2)c2ccccc21
[1]
  Potency: inconclusive: 3.76 µM [cytotoxic, partial curve, poor fit]
[2]
  Potency: active: 5.96 µM

## O=C(O)C(F)(F)C(F)(F)C(F)(F)C(F)(F)C(F)(F)C(F)(F)C(F)(F)F
[1]
  Potency: inactive
[2]
  Potency: inconclusive: 68.5 µM [inhibitor, single point]

## COc1cc(-c2ccc(N)c(OC)c2)ccc1N
[1]
  Potency: inconclusive: 27 µM [rising, single point]
[2]
  Potency: inconclusive: 24.3 µM [inhibitor, partial curve, poor fit]
[5]
  Potency: inconclusive: 36.8 µM [cytotoxic]
[13]
  Potency: inconclusive: 65.5 µM [cytotoxic]
[12]
  Potency: inconclusive: 58.8 µM [cytotoxic, single point]
[10]
  Potency: inactive and active: 33.1 µM

## ClC1=C(Cl)[C@]2(Cl)[C@@H]3[C@@H]4C[C@@H]([C@H]5O[C@@H]45)[C@@H]3[C@@]1(Cl)C2(Cl)Cl
[1]
  Potency: active: 40.9 µM
[2]
  Potency: active: 30.6 µM
[11]
  Potency: inconclusive: 24.3 µM [inhibitor, partial curve, poor fit]
[4]
  Potency: inconclusive: 24.5 µM [cytotoxic, full curve]
[6]
  Potency: inconclusive: 24.5 µM
[7]
  Potency: inconclusive: 22.5 µM [activator]
[13]
  Potency: inconclusive: 7.7 µM [cytotoxic, full curve, poor fit]
[10]
  Potency: inconclusive: 54.9 µM [fluorescent]
